Reference: PubChem BioAssay AID686979 (National Center for Advancing Translational Sciences (NCATS), 2013)
Among all 420,000 compounds or so, about 50,000 (12%) were called active. Inconclusive results, whose numbers are uncertain, are shown with a selection of clear calls. The call rests on the fitted dose curve; in most records, active means well fitted inhibition curve with a large enough effect; inconclusive means small, poorly fitted or top-dose-only effect; inactive means flat fitted curve, though single readings scatter. No potency is given beside an inconclusive call; the fits are too rough.

Assay: qHTS for Inhibitors of human tyrosyl-DNA phosphodiesterase 1 (TDP1): qHTS in cells in presence of CPT; further: nearly all actives have a fitted effect of over 55% in size
Conditions: chicken DT40 Tdp1-/-;hTDP1 cells + 20 nM CPT, ATP luminescence, 48 h; activity change, negative = growth inhibition: at 46.2 µM (top of the series)
In short: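 Chicken DT40 Tdp1-/- cells stably complemented with human TDP1 were seeded at 400 cells/well in medium containing 20 nM camptothecin, exposed to pin-transferred compounds, and grown at 37 °C for at least 48 hr. Viability was read as ATP luminescence.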
On the % scale 0 is the no-effect control and ±100 the full control effect; potency means the concentration at half of the fitted maximal effect; tags describe the fitted curve by direction and shape.

Row | SMILES | Potency | activity change, negative = growth inhibition
1 | COc1c(/C=N/Nc2ccc([N+](=O)[O-])cc2[N+](=O)[O-])c(C)nn1-c1ccccc1 | inconclusive [inhibitor, single point] | 
2 | O=C(CN1C(=O)C(=O)c2ccccc21)OCN1C(=O)c2ccccc2C1=O | inactive | 
3 | COc1cc(C(=O)NCc2ccc3c(c2)OCO3)c([N+](=O)[O-])cc1OC | inactive | 
4 | O=C(N/N=C/c1ccc(-c2ccccc2[N+](=O)[O-])o1)c1cncc(Br)c1 | inconclusive [inhibitor, single point] | 
5 | CCn1c(=O)c(CCC(=O)NCC2CCCO2)c(C)c2c(C)nn(-c3ccc(C)cc3)c21 (stereo unspecified) | active: 23.1 µM | 
6 | CSc1cccc(NC(=O)N2CCN(c3cc(-c4noc(C)n4)ccc3C)CC2)c1 | inconclusive [inhibitor, single point] | 
7 | COc1ccc(C2=NN(C(=O)c3cccs3)C(c3ccc(OC)cc3)C2)cc1 (stereo unspecified) | inconclusive [inhibitor, single point] | 
8 | COc1cc(-c2cnc3c(NC(C)=O)cc(-c4ccccc4CN(C)C)cn23)cc(OC)c1OC | active: 23.1 µM | 
9 | C[n+]1c(/C=C/c2ccc(O)cc2)ccc2ccccc21 | inconclusive [inhibitor, partial curve] | 
10 | O=[N+]([O-])c1cc(C(F)(F)F)ccc1NCCNC(=S)Nc1ccc(Cl)cc1 | active: 29.1 µM | 
11 | COc1ccc2cc(CNCc3ccccc3Cl)c(N3CCCC(CO)C3)nc2c1 (stereo unspecified) |  | inactive: 24.6% [at 9.04 µM]
12 | CCOC(=O)c1ccc(NC(=O)Nc2nncs2)cc1 | active: 0.0184 µM | 
13 | O=C(NCCCCc1ccccc1)Nc1ccc(F)cc1F | inconclusive [inhibitor, single point] | 
14 | Cc1ccc(NC(=O)C2CCCN2S(=O)(=O)c2ccc(F)cc2)c(C)c1 (stereo unspecified) | inactive | 
15 | CCCCCn1c(CNC(=O)c2cccs2)nc2ccccc21 | inconclusive [inhibitor, single point] | 
16 | CCN1CCN(c2ncnc3c2cnn3-c2ccc(C)cc2)CC1 | inconclusive [inhibitor, single point] | 
17 | COc1ccc(N2CCC(CNC(=S)Nc3cc(C)cc(C)c3)C2)cc1 (stereo unspecified) | inconclusive [inhibitor, single point] | 
18 | O=S(=O)(NCc1ccc2c(c1)OCO2)c1ccccc1F |  | inconclusive: -31.6% [inhibitor]
19 | C=CCn1c(SCCCc2ccccc2)nc2c1c(=O)[nH]c(=O)n2C | inconclusive [inhibitor, single point] | 
20 | COc1cc(C2CC(=O)N(c3ccccc3)C3=C2C(=O)OC3)cc(OC)c1OC (stereo unspecified) | inactive | 
21 | O=C(NC1CCCCCC1)c1ccc2c(c1)sc1nc(-c3ccccc3)cn12 | active: 9.2 µM | 
22 | CCOC(=O)c1c(NC(=S)NC(=O)c2ccc(Cn3cc(Cl)cn3)o2)sc2c1CCCCC2 | inconclusive [inhibitor, single point] | 
23 | CC1CN(c2nc(-c3ccccc3)nc3ccccc23)CC(C)O1 (stereo unspecified) | inconclusive [inhibitor, single point] | 

Row | SMILES | Potency | activity change, negative = growth inhibition
24 | COc1ccc(N2C(=O)/C(=C\c3ccco3)N=C2SCC(N)=O)cc1Cl | inconclusive [inhibitor, single point] | 
25 | CCC(C)Nc1nc(-c2ccccn2)nc2ccccc12 (stereo unspecified) | active: 4.11 µM | 
26 | CCOC(=O)c1c(C)[nH]c(C)c1S(=O)(=O)N1CCCC(C(=O)Nc2ccc(F)cc2F)C1 (stereo unspecified) | inconclusive [inhibitor, single point] | 
27 | O=C(COc1ccccc1C(=O)Nc1ccccc1)Nc1ccccc1F | inconclusive [inhibitor, single point] | 
28 | Clc1ccc2nc(SCc3nnc(-c4ccccc4)o3)[nH]c2c1 | inactive | 
29 | CC(=O)c1cc2c(cc1NC(=O)CSc1nc3ccc(C)cc3[nH]1)OCO2 | inactive | 
30 | C=C1CCN([C@@H](C)C(=O)OCc2ccc(C)cc2)S(=O)(=O)c2ccccc21 | inconclusive [inhibitor, single point] | 
31 | COC(=O)C1=C(C)N(Cc2ccco2)C(=O)/C1=C\c1ccc([N+](=O)[O-])cc1 | active: 16.4 µM | 
32 | N#Cc1cc([N+](=O)[O-])ccc1NC(=O)COC(=O)C1CCC(=O)N1 (stereo unspecified) | inactive | 
33 | CN(C)c1ncnc2c1ncn2[C@H]1CN(Cc2ccc(Cl)cc2)C[C@@H](CO)O1 | inconclusive [inhibitor, single point] | 
34 | COc1ccc(NC(=O)C2(C)Cc3c(-c4ccc5c(c4)OCO5)ccnc3O2)cc1 (stereo unspecified) | active: 4.11 µM | 
35 | COc1ccc(C2NCCc3c2[nH]c2ccccc32)cc1CN1CCc2cc(OC)c(OC)cc2C1C (stereo unspecified) | inconclusive [inhibitor, single point] | 
36 | CCN(C(=O)CCN1C(=O)/C(=C/c2ccccc2)SC1=S)C1CCS(=O)(=O)C1 (stereo unspecified) | active: 18.4 µM | 
37 | O=C(CSc1nnc(-c2ccccc2F)n1C1CCCCC1)Nc1cc(C(=O)O)ccc1Cl | inactive | 
38 | CCOc1ccc(NC(=O)CSc2cn(CC(=O)N3CCCCCC3)c3ccccc23)cc1 | active: 23.1 µM | 
39 | Cc1cc2ccccc2n1CCNC(=O)c1cccc(Cl)c1 | active: 14.6 µM | 
40 | S=c1[nH]nc(-c2cc3c(s2)-c2ccccc2CC3)o1 | inconclusive [inhibitor, single point] | 
41 | Cc1cccc(-n2c(C)cc(C)c(C#N)c2=O)c1 | inactive | 
42 | O=C(c1ccc(Cl)c(Cl)c1)N1CCC(=O)N([C@H](COCc2cccc(C(F)(F)F)c2)Cc2ccccc2)CC1 | inconclusive [inhibitor, single point] | 
43 | COc1ccccc1CNC(=O)c1nn(C)c2c1CS(=O)(=O)c1ccccc1-2 | inactive | 
44 | CCOc1ccccc1NC(=O)C(c1ccccc1)N1CCN(C(=O)c2ccco2)CC1 (stereo unspecified) | inactive | 
45 | CCN(CC)c1ccc(/C=C2\NC(=O)NC2=O)cc1 | inconclusive [inhibitor, single point] | 
46 | Cc1cccc(C)c1NC(=O)/C(=C/c1ccco1)c1ccccc1 | active: 18.4 µM | 
